# Measured values: the supplement of paper PMC3334620
# Whole data set: some 33,000 sequences, median “E-score (-0.5 to 0.5)” near -0.035, cut for the highest 2% near 0.34. The list shows a part of the results.
# Molecular target: T1, Mot3 (UniProt P54785)
# T1 sequence: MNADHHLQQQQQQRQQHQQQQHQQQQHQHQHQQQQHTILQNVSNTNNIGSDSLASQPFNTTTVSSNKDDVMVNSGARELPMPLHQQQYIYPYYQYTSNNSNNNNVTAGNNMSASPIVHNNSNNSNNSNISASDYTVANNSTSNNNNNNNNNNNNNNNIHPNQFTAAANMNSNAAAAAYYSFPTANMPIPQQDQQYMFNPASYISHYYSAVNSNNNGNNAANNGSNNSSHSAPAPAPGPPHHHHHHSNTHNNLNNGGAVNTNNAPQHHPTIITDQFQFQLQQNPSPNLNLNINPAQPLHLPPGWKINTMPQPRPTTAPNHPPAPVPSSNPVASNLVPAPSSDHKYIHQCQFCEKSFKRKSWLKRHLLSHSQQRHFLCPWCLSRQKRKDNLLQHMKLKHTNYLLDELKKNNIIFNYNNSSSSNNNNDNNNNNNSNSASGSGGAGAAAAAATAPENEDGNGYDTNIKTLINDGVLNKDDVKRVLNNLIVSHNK
# Experiment: PBM E-score (8-mer binding enrichment) (E-score (-0.5 to 0.5)); higher = stronger / more preferred TF binding; most listed sequences are background and not binding sites
# Details: protein concentration: 200 nM; construct: GST-full length
# Method in brief: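 Using PURExpress in vitro transcription/translation, GST-tagged yeast transcription factors were made in full-length or DNA-binding-domain form. These were applied at about 100-200 nM to double-stranded universal all-10-mer Agilent arrays, and bound protein was detected with fluorescent anti-GST. Scans were normalised with masliner before the Universal PBM Analysis Suite assigned E-scores to ungapped eight-base words pooled with their reverse complements.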
row,Sequence,PBM E-score
1,AGACCCTG,-0.144
2,AACATGCA,0.324
3,CCTAGCTC,-0.106
4,TAATCGAA,0.0218
5,GACTCGAA,-0.207
6,TAATTCAA,0.296
7,ACGTAAGA,0.192
8,AATCAACA,0.253
9,CTTGAGCC,-0.276
10,GAGCTCTA,-0.131
11,CGCCTGGA,0.0564
12,GCGAGTCC,-0.287
13,CTGTCGCC,-0.262
14,ATCGGGCC,-0.258
15,ACTACTAT,0.0462
16,GTCACACA,0.113
17,CTGTCAAA,0.106
18,ATAGGCAT,0.412
19,CGTGGATC,-0.143
20,GATGGCGC,-0.0871
21,GCCTTCGA,0.229
22,GGCAATAC,0.257
23,CGAGACCG,-0.161
24,GATTTGCA,-0.00568
25,AACTCCTG,0.14

row,Sequence,PBM E-score
1,TATCTCAA,0.125
2,AACCGATA,0.00264
3,ACCATGGC,0.0712
4,CTTATCCA,0.0699
5,CCATCCCG,-0.237
6,AAAAGATA,0.0748
7,CCGTGCGA,-0.0696
8,CTGAAAGA,-0.0143
9,TCTAGACA,0.167
10,ACATCTAG,0.0465
11,ATCAACAC,0.289
12,CTTCATAC,0.0988
13,AAGCAGAC,-0.0963
14,AGTGGAAA,-0.0342
15,AAGTAAAA,0.0731
16,TCCGGACA,-0.0589
17,TACCTATA,0.316
18,AATCCAAG,-0.202
19,ACCTCTAT,-0.0993
20,ACTGACTA,-0.0434
21,AAGCCGAA,0.0251
22,GTTTAATA,0.161
23,AAAACCTA,0.186
24,CCGTACCC,-0.255
25,CGCCGCCA,-0.239

row,Sequence,PBM E-score
1,ACAAAAGC,0.0563
2,GTGCTCCA,-0.219
3,CAAATGTG,0.184
4,AAGTGAAC,-0.0157
5,AGGGAGAT,-0.343
6,AACGCTGC,-0.044
7,ATGATACC,0.0407
8,GCCACTAA,-0.238
9,ACTCGGCA,-0.102
10,GCTCGTAA,0.148
11,AAGTGTCA,-0.0296
12,GCACACAA,0.114
13,CTATTAAG,-0.00367
14,CGGGCTCA,-0.352
15,AAGCATCC,-0.202
16,TCACGGAA,-0.00332
17,AGCCGCCA,-0.291
18,CAATGCAA,0.153
19,GTACCTTA,0.355
20,GCCTAACA,0.287
21,ATTGGAAA,-0.0614
22,AGTAAAAT,0.104
23,TATCAATA,0.134
24,AACCACAC,0.113
25,CTGACAGA,-0.103

row,Sequence,PBM E-score
1,CGGAGACC,-0.163
2,CCTACAAA,0.142
3,GCACCACC,-0.0765
4,ATGTCCCG,-0.131
5,CACTGGCG,0.0533
6,GGGCCTAC,0.0324
7,CAATACAC,0.331
8,ACCCGAGA,-0.258
9,AGACCCGG,-0.237
10,CGGTGAGA,-0.261
11,ACTGTGCT,-0.0778
12,AGGCGATA,-0.0912
13,GTGTTACA,0.326
14,AAACGCTA,-0.0463
15,GACGACAA,-0.0376
16,CGTCAGAG,-0.0365
17,GCCGTAGC,-0.166
18,GGGGCGAC,-0.263
19,TCCTGCAA,0.15
20,CGTACGCA,0.00657
21,CGACATAG,0.0157
22,TGGCATAA,0.0838
23,AAAAATTG,0.192
24,AAAGGACG,0.089
25,CTGGAGAC,-0.134

row,Sequence,PBM E-score
1,TGACTGCA,0.0356
2,CAAATAAC,0.143
3,AATCAACT,0.141
4,TAGAAGAA,0.0576
5,CCGAAGTA,0.0211
6,AGTTTTAT,0.0234
7,CGCCATAC,-0.104
8,CAATGCCA,-0.113
9,CGTTCTTA,0.0238
10,ACATCGCC,0.0886
11,AACCATTC,-0.0709
12,GATAGTAA,-0.0741
13,GTCAAAAC,0.0484
14,TATGTACA,0.353
15,AAAGCCAC,-0.0399
16,AGGCCCGC,0.0393
17,CACATCGC,0.0781
18,AAAACGTC,0.106
19,GTGAGCTA,-0.0469
20,CCCACTAG,-0.336
21,ATATAAAG,0.0757
22,GGCGCATA,-0.113
23,TGCATCAA,0.105
24,TGGCCTAA,0.0826
25,AACCGTCT,0.0418

row,Sequence,PBM E-score
1,ATCATCCA,-0.0672
2,CATGAGAC,0.0987
3,CTCTGAAG,-0.132
4,CAAGACCG,-0.0613
5,ACTGCCTC,-0.176
6,GCAGTACC,0.0693
7,CAGGGCAC,0.332
8,AAGCGACG,-0.15
9,AACTCAAA,0.117
10,ATCTGTAG,-0.02
11,GCCACAGC,-0.265
12,TACACGGA,0.357
13,TCAGATGA,-0.156
14,GTAGGTGA,0.0361
15,CGTAAGCC,-0.146
16,AGGGGCCA,-0.281
17,CGATGGCC,-0.268
18,CTCGACTA,-0.143
19,AGTAATAG,0.201
20,GCGCTCTA,-0.268
21,TAACGCGA,0.25
22,CCGGTAAG,0.0758
23,TGACGAAA,0.0928
24,CTGTACAA,0.196
25,TACGGAGA,0.0248

row,Sequence,PBM E-score
1,GATCGCGA,-0.187
2,AGATTGTA,0.0155
3,AAAAAGCC,0.109
4,TATCTAAA,0.112
5,ATGGGGAG,-0.135
6,GGTTTCGA,-0.257
7,ACTAGCCC,-0.047
8,AGAGGCAG,-0.133
9,AATAGTGA,0.0314
10,AGCACGTG,0.199
11,AGGGAGTG,-0.142
12,TCATCGCA,-0.0756
13,GCTAGTAC,0.00779
14,CCAGGAAG,-0.078
15,AACTGTAT,0.0258
16,CCTCATAG,-0.0565
17,CAGAGTAA,0.128
18,ACGGGAAG,-0.16
19,GTTCCTTA,0.428
20,CAGAGATA,0.0644
21,CTGGCTCC,0.0141
22,AGAGCCTC,-0.422
